The list shows a part of the results. At the low end of the ranking the order means little.
System: T1, GST-NbGlk1(82-244)
T1 sequence: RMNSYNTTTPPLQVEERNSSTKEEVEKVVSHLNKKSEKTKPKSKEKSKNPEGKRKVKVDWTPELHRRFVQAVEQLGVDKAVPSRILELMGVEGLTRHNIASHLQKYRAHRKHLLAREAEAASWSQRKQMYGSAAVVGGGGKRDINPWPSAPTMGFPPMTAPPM
Assay: protein-binding microarray;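 also: rank-based score ranging −0.5 to +0.5 with E above 0.45 taken as significant binding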
Details: NbGlk1 is a Golden2-like transcription factor of Nicotiana benthamiana; high values mean tight binding; most listed sequences are background and not binding sites; double strand, one strand shown

Sequence	binding signal [E-score]
AGCATGTA	0.0981
AGAACTTG	-0.0907
AAAGACAA	0.0545
AACTTGTG	-0.191
AAATGTCG	-0.00369
AGCTGTAA	-0.0439
ACTCCCCC	-0.216
AATAACCA	0.0526
AACGCATA	-0.0442
AGATGTAG	0.0326
ACCCCGCG	-0.188
AAGCGCTC	-0.0795
AATGAGGG	-0.0102
ACCATTTC	-0.0965
ATTGCTAA	0.202
ACACCCAG	-0.139
AACGTTGG	-0.0439
ATCAAGTG	0.0355
ATACTATG	0.00304
CAACACCA	-0.122
ACTAGGAG	-0.143
CAAAGAAG	-0.0409
ATGGAGAC	-0.168
AACCATGA	0.0502
CAACCTCC	-0.312

Sequence	binding signal [E-score]
ACATACGT	-0.0574
CACTACGA	-0.0405
ACACTAGG	-0.0663
ACGGGTAT	0.00646
ACCTGGCT	-0.283
CACCGGGC	-0.275
AGAAAGAG	-0.129
ATCCTATA	0.326
AGAGCTCC	-0.331
CAATCAGC	0.22
AACCCCAC	-0.155
ACCATGAA	0.0718
AAGCATTG	-0.205
AAGGTCCA	-0.296
ACTTGTAC	-0.0738
CAACAATA	0.11
ATGGAGTG	-0.0854
AGTACGTC	-0.165
ATGACCGA	-0.13
AAGTATGG	-0.0398
AACGGCGG	-0.173
CAGACGAG	-0.136
AATCTTTC	0.387
AGTACTCA	-0.125
ATGCGCGG	-0.0606

Sequence	binding signal [E-score]
ACCTCGCA	-0.0939
CAATGAGG	-0.0731
ATCTCTCG	0.231
CACTCATC	-0.0744
AGGGAATA	0.196
ATGTGGGG	-0.184
AATGGCAA	-0.0366
ACCTTTTA	0.0069
AAAGGCCC	-0.411
AGAACGTC	-0.0857
CAACCAAA	0.0618
AACCGTCT	-0.0831
AGTCGGCG	-0.194
ACGTACCG	-0.243
AGAGTGAT	0.0279
AGACACCC	-0.259
ATGGCTGG	-0.261
AGTGGGAG	-0.0151
AGTCCTGA	0.0152
ACCAACAC	-0.0999
CAATTGGC	-0.118
ACTGCGAG	-0.188
AGGTGTAG	-0.226
ATTACGTG	0.343
ATACATTA	0.143

Sequence	binding signal [E-score]
ACTTCAGC	-0.0718
CAGCCCCG	-0.14
AGTGGGGG	-0.205
CAACTCTA	0.00695
AACTTGGC	-0.0286
AGAATACC	-0.0837
AGTATCAG	0.272
AATACCTA	0.0521
AGCTTTCC	-0.0521
AAGATCCT	0.339
AGCCCAAC	-0.156
AAGCCAAG	-0.2
ATGCGACA	-0.0572
AATTGTGC	0.0307
ATTAATAG	0.0377
AACCAGAT	0.301
ATGTTTCG	-0.00207
CACAACTA	-0.0583
ATTCGTGG	0.155
ACGAAAGA	0.15
AGAATCTC	0.469
CAACTCCG	-0.0631
ACGGTGTA	-0.0358
ACCAGCGA	0.0697
ACATCGAC	-0.145

Sequence	binding signal [E-score]
AGTAGCGC	-0.246
AATGCAAG	0.0142
ATTGTTCA	0.0569
ACTCTACT	-0.0332
ATAGCGGA	0.0945
AGAGAAAC	-0.0997
ATGTCAGG	-0.16
ACCTTTAG	-0.134
AGACATCT	0.0442
AGTCGCGC	-0.0545
AACCGATG	-0.176
CACCAAGC	-0.215
AGACCGAC	-0.209
ATTTGTTG	0.185
CAAACCCG	-0.126
AAACGGCG	-0.144
AAACGATT	0.154
ATATCCGC	0.411
AAACAGTT	-0.0481
AAATGCGA	0.127
AATTAAAT	0.15
AGGCGCCG	-0.172
ACGACCAT	-0.128
AGTCGTTA	0.0945
ATGAGAAT	0.351

Sequence	binding signal [E-score]
ACGGGGTA	-0.115
ACAATATA	0.206
AACAAGAT	0.228
ACTATACA	0.074
AAACTATA	0.104
CACAGCCA	0.00778
ACACGCAA	0.11
AGAGGGGC	-0.176
ACTAATAG	-0.0821
AAGGCAAA	0.0278
AACCACAT	-0.109
AAATAGAT	0.264
AGATCGAA	0.146
ACGAGCGG	-0.299
AAAGACTG	0.0291
AAGTTACA	-0.0727
ACAGGGGG	-0.248
ACACACGA	-0.0169
ATGCGCCC	-0.222
ATTGGTGG	0.00656
AGTGGTAA	-0.0592
ATCAGAGA	0.238
ACTCCGGC	-0.178
AAAATACT	0.174
AAGAATTA	0.13

Sequence	binding signal [E-score]
CAATTTAG	0.167
ATCCAATA	0.324
AACACCGT	-0.122
AAATAACC	0.163
AACCTTGA	-0.0413
AGAAAAAG	-0.0842
CAATTGTC	-0.0786
AAGCCTAG	-0.241
AATCAATG	0.154
AGCCAATA	-0.0547
AAGTACTG	-0.0772
ACATTGAC	-0.0538
AGTGGCAT	-0.11
CACGGCAC	-0.0757
ATAAGTTC	0.0665
ACCTGTGC	-0.181
AGTGTTGG	-0.0944
AAATCCAA	0.426
ATACTCAG	0.177
ACCCTCTA	-0.123
CAGATGAC	-0.117
AACAGGAC	-0.0652
